In the supplement of paper PMC11417369:
Some of the results follow.

System: PF3D7_0420300 AP2 domain 1 (GST-tagged)
Test: gcPBM binding intensity (ln(normalized median fluorescence intensity)); higher = stronger DNA binding
Method in brief: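 Binding intensity is the highest Masliner-normalised natural-log median intensity over replicate spots in either probe orientation. To obtain it, GST-tagged P. falciparum DNA-binding domains made in E. coli were incubated for 1 h on an Agilent 4 × 180k array of primer-extended double-stranded 36-bp intergenic genomic probes plus negative controls. Detection used Alexa488 anti-GST antibody with scanning at 488 nm.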

Sequence	gcPBM binding intensity (ln)
CAAAAGGATGTGGGATGTACATATGAAAAAAAAAAA [XGTACX_site8059]	9.24
TTTTATTTATAATACTCACACATTTATATTACATAT [CACACA_site6000]	9.46
TTGTATGTAAAAAAGTGTACATGAGTGATTATATAA [XGTACX_site8166]	9.36
GGTCTTTTTTTCAAAAGTACATAAATAAAAAAGGTT [XGTACX_site2894]	9.09
ATTACTAAAAAATATAAACACACATATATTTTACAT [CACACA_site8633]	9.6
TAAATTTAAAAATCTGCACACATTTAAAAAAAAAAA [CACACA_site2515]	9.15
GAAAATTTAAAAAGAGTGCATTATATGTTTGAATAT [GTGCAC_site9564]	9.19
CTTTTTTTCTTTCCAAGTACTAAATTCATACAAATT [XGTACX_site2605]	9.08
AATAAAATAATAAAAGCACACAAGAATACACCCAAA [CACACA_site7919]	10.1
TTTAACGAATAAAAATGTACAAATTTATACATTTAT [XGTACX_site2805]	9.01
ATAGGTAAAAAGTATACACACGTTGACACATTCTTT [CACACA_site4794]	9.47
AAATAATACAAGGGCTGTACATAAAAAGGAGTATAT [XGTACX_site839]	9.81
ATTTTAAAAAGGATAGTGCAAATGTTAAAATAGGAC	9.64
AGAAAAAAAAAAAGTACACACATATAACATATAGAT [CACACA_site7410]	9.97
ATTTATTTTCTGTGTACACATATGTTGGGTATTTTA [CACACA_site5902]	9.63
GTATATATCCCAAAATGTACATAATTTATTATTTAT [XGTACX_site2842]	9.28
ATCTCTTATATATTCACACACATATATATAATTATA [CACACA_site1502]	9.78
AAATATAATAACGAACGTACTTATTATAATTTGTAA [XGTACX_site2342]	8.98
TATTTATATATATGATGTACATAAGGTGTAATGTTA [XGTACX_site5591]	9.2
TATTTACATACAAAATGTACAAAAATATATTTTTTT [XGTACX_site888]	9.08

Sequence	gcPBM binding intensity (ln)
TACATGAATATTTATACATGCACACTAAAATAAAGA [TGCATGCA_site611]	9.35
ATATATATTTAATGTTGTACATAAAAAATATATAAA [XGTACX_site7774]	9.01
AAACATATATACATATGTACATATATACATATATGT [XGTACX_site5779]	9.29
TATAAACCTTTTTGCACGCACACAAAAAAAAAATAA [CACACA_site168]	9.26
TTCGGAAAAATTAAAGCACACAAAAAAAAATAAAAA [CACACA_site8296]	9.45
GATTAACAACATATTAGTACATATATTATATATATA [XGTACX_site7646]	9.31
GACTATAATGTTTTGGTGCGTCATGTTATGGTCATC	9.3
CATATTTTATTATATACATGCAATTTTAATATATAT [TGCATGCA_site544]	9.17
TATAATTTAACGACATGTACATATAAAAAAATATTT [XGTACX_site2395]	9.22
ATACACATTCTTCCGACATAATAAGAAAAAGAAAAA [CACACA_negctrl_site9]	9.13
AAAATGTATTCTCTCATGCACACTTTCTTTAAGGGA [CACACA_site2196]	9.08
TGTAGATTTTGTAACACACACATATAAATACCTATA [CACACA_site7183]	9.73
TTATTTATATTTTTTTGTACACATATTGTATACATA [XGTACX_site1178]	9.31
CTTAAATTGAAATGTTGTACAAAGTAAAAACAATGA [XGTACX_site2123]	9.36
TATTAACACAATAGCGCACACTTTTAATATTTTATA [CACACA_site1617]	9.38
AAAGAATACAAAATTGCACACATATTGTGAAAATGT [CACACA_site9327]	9.67
ATATAATGTTGTAATAGTACTTTTTTCATATAAATA [XGTACX_site2666]	9.21
TTTTATTATTAATTTCTTTTTTCTCATCACTTTCAA [XGTACX_negctrl_site117]	8.96
TTTACAAAAAATTATACACACACGTACATATAAATA [CACACA_site945]	9.67
ATATATATAAAATATACACACATACTGTTCATTTAA [CACACA_site6149]	9.5

Sequence	gcPBM binding intensity (ln)
TAATTTATGAGTAATACACACACTTGTGGATATATT [CACACA_site3790]	9.5
TACGTTCTAATATATACACACCTGGTATTAATTATG [CACACA_site5260]	9.63
AAATATTATTTATTTACACACCAATCTTCTTTTCTT [CACACA_site3990]	9.57
GAAAAATTTTTATATGTGCACATGTTATATATAATT [GTGCAC_site9742]	9.28
CGTATATATATATACACACACATATATATATGTAAA [CACACA_site195]	9.69
TATTTCCATTCATAATTTTGTAGAATATATAACCGT [CACACA_negctrl_site1531]	9.11
AAAAACTTAATATTCACACATATATATATATATATA [CACACA_site5240]	9.14
AAAAAAAAAAATTACACACATACATATAATAATAAT [CACACA_site2193]	9.85
AAAAAAAAAAATCCAGTGCATATATTTTTTACATAT	9.18
ATTACATTAATAAGAGTGCATTATATAAGTTTTATG	9.2
TCAATCATCTTATATAGTACACATAAAAGTATTATA [XGTACX_site8513]	8.99
GACAAAATGATAGGGACACACAATATCAATGTTTAA [CACACA_site765]	9.46
CCACTAATAAATATTACACACATATAGATTTATATT [CACACA_site7465]	9.51
CAAAAGGATATGCACACACACACACGGATATTTATA [CACACA_site7099]	10.2
TTTTGTTATTAGAGGGTGCTTATAATGAACTCCTAC	9.05
TTTTGTTTTAATTTTATTTGATTTTATTTGATTTAT [CACACA_negctrl_site692]	9.43
ATATTTATATGGTTTGCACACATAACAACTATGGTT [CACACA_site3631]	9.57
ATATAACATATCAATTGTACGTATTGATAATATATA [XGTACX_site2504]	9.19
